# Measurements from ChEMBL document CHEMBL4888484, “Replenishing the malaria drug discovery pipeline: Screening and hit evaluation of the MMV Hit Generation Library 1 (HGL1) against asexual blood stage Plasmodium falciparum ,using a nano luciferase reporter read-out” (2022).
# Hit rate of the full screen: of about 150,000 compounds, about 540 (0.36%) showed an effect of 50% or more. Some of the results follow.
# Test system: Plasmodium falciparum
# Experiment: Primary screen in NF54 nanoGlo assay, in single point, at 2uM, 72h; a lower Z score goes with more inhibition
# Format: functional, Erythrocyte
# Details: timepoint 72 hour
Compound,% Inhibition,Z score
OC(CNC1CCCC(C(F)(F)F)C1)CN1CCCCC1 (stereo not drawn),-7%,0.99
COc1ccc(CN2CCC3(CC2)NC(=O)c2cc(Cl)ccc2N3)cc1,-5%,0.61
CC(=O)c1cccc(CN2CCC(CCC(=O)N(C)Cc3ccccc3)CC2)c1,-3%,0.34
O=S(=O)(Nc1cccc(/C=C/c2ccncc2)c1)c1ccc2c(c1)OCCO2,-13%,1.54
Cc1cc(NC(=O)c2cnn3c2C[C@@H](C)CC3)c[nH]c1=O,-20%,2.56
Cc1ncc2c(c1-c1noc(-c3ccco3)n1)CCN(C(=O)[C@@H]1CCCO1)C2,-6%,0.72
Cc1cc(C)n(-c2nc3c(c(=O)n2CC(=O)NCc2ccc(F)cc2)CCC3)n1,-11%,1.46
CCCC1CCC(c2ccc(OC(=O)c3cccc(C(=O)OC)n3)cc2)CC1 (stereo not drawn),-10%,1.93
CCc1cc(NC[C@H](O)c2cncs2)ncn1,-12%,2.32
O=c1[nH]cccc1-c1cc(NCc2cccnc2)nc2[nH]ccc12,-6%,1.05
COc1cc(OC)nc(C(=O)N2CCCC[C@@]23CCOC3)n1,-6%,0.96
CC(=O)Nc1cc(C(=O)NCc2scnc2-c2ccccc2)cc2ncn(CCc3ccccn3)c12,5%,-0.72
C=C[C@H]1OCC[C@@H]1CN1C(=O)N(C)C(C)(C)C1=O,-15%,2.13
O=C(N[C@H]1CCn2nccc2C1)c1ccc(OC(F)F)cn1,-8%,0.97
Cn1nnc(NS(=O)(=O)c2ccc(O)cc2)n1,15%,-2.26
Cc1nc2cc(C(=O)N(C)[C@H]3CCNC3=O)ccc2o1,2%,-0.46
CCC(C)C(NS(=O)(=O)c1cccc(C(F)(F)F)c1)C(=O)NCCc1ccccn1 (stereo not drawn),-10%,1.31
O=C1NCCN2CC3(CCN(S(=O)(=O)Cc4ccccc4F)CC3)C[C@@H]12,3%,-0.64
CCNC(=O)Nc1nnc(CC(C)C)s1,5%,-0.63
Cn1nnnc1NC(=O)c1c(Cl)cccc1OCC1CC1,3%,-0.52
Cc1ccc(N2CC(C(=O)NC3CCc4nccn4C3)CC2=O)cc1 (stereo not drawn),-7%,1.45

Compound,% Inhibition,Z score
C[C@@H](CCn1cccn1)NCC(=O)Nc1ccc(Cl)cc1F,2%,-0.38
Cc1ccc(C(C)NC(=O)C2COc3ccccc3O2)o1 (stereo not drawn),-2%,0.17
CN1CCCC1C(=O)NCCCC1CCCCC1O (stereo not drawn),10%,-1.6
C[C@@H]1CN(C(=O)NCc2cn(C)nc2C(F)(F)F)C[C@H]1CO,1%,-0.1
CCOc1ccc(CN(CCO)CCO)cc1C(=O)OC,-8%,1.08
CC(CC#N)NS(=O)(=O)c1cnc(N2CCCC2C)c(Cl)c1 (stereo not drawn),-1%,0.17
Cc1nc(N)nc(C(F)(F)F)c1Br,-1%,0.16
CCCNC(=O)Cc1ccc(N(Cc2ccccc2C)C(=O)c2cccs2)cc1,-4%,0.5
CCN1CC(C)C(NC(=O)NC[C@@H]2Cc3ccccc3CO2)C1 (stereo partly drawn),-4%,0.71
CCN(Cc1ccccc1)C(=O)c1cc(S(=O)(=O)N2CCOCC2)ccc1N1CCCC1,-6%,0.54
Cc1cccc(CC2CN(C(=O)Cc3ccc(C(=O)O)cc3)C2)c1,-9%,1.39
N#Cc1ccccc1Oc1ccc2c(c1)CCC(=O)N2,-4%,0.53
CCc1nccc(CN(C)[C@@H](CC)c2ccccc2)n1,-4%,0.43
C[C@H](O)CNS(=O)(=O)[C@H]1C[C@@H]1c1ccc(Br)cc1,3%,-0.36
COc1ccc(C(=O)N2CCC3(CCCCC3)C2)nn1,-5%,0.41
CN(CC(=O)NC[C@H]1CCCc2ccc(C(=O)O)cc21)C1CCC1,-14%,2.79
Cc1noc(-c2ccc(S(=O)(=O)N3C[C@H]4CC[C@@H](C3)N(C)C4=O)o2)c1C,3%,-0.39
Cc1ccn(-c2cccc(NC(=O)N[C@@H]3C=C[C@H](CO)C3)c2)n1,2%,-0.2
O=C1NC(=O)c2ccc3c4c(ccc1c24)C(=O)N(c1ccccc1)C3=O,73%,-8.98
Cc1cc2c(N3CCC(C(=O)Nc4ccc(Cl)cc4C)CC3)nccc2s1,1%,-0.24
CCNc1ncc(C(=O)N2CCCCCCC2)cn1,1%,-0.16

Compound,% Inhibition,Z score
O=C(N[C@@H](CCO)c1ccccc1F)c1nc(C2CC2)ncc1Br,-9%,1.7
CNC(=O)C1(N2CCC[C@H]2C(=O)N2CC[C@@H](O)C2)CCCCC1,-6%,0.86
CC(=O)N1CCCN(S(=O)(=O)Cc2ccccc2Cl)CCNC(=O)[C@@H]2CCC[C@@H]21,45%,-5.08
COc1cccc(-c2nc3ccc(-c4cccc(C)c4)cn3c2CN2CCN(S(=O)(=O)c3ccc(F)cc3OC)CC2)c1,-1%,0.08
Cc1cc(O)nc2cc(NC(=O)CCn3cnnn3)ccc12,-2%,0.34
CC(C)(C(=O)N1CCCc2cc[nH]c(=O)c21)c1cccc(Cl)c1,3%,-0.55
O=C(c1csc(S(=O)(=O)N2CCCCCC2)c1)N1CCCCC1,-6%,0.63
Cc1ccc(O[C@H]2CCCN(S(=O)(=O)c3ccc(C#N)cc3)C2)nn1,-33%,3.77
Cc1c(C(F)(F)F)nn(C)c1NC(=O)[C@@H]1COc2ccccc2O1,30%,-3.98
CCc1ccc(CNC(=O)[C@]2(C)COCc3nnc(C(C)C)n32)cc1,-12%,1.45
C[C@@H](CC(N)=O)NC(=O)CCc1ccccc1,-2%,0.44
CN(C)c1cc(C(=O)N2CC(C)(C)O[C@](C)(C(F)(F)F)C2)ccn1,-5%,0.95
O=C(CNC(=O)OCc1ccccc1)NCc1cccnc1-c1cccnc1,-6%,0.91
Cc1ccc(-c2noc(-c3ccc(CS(=O)(=O)c4ccc(C)cc4)o3)n2)cc1,-11%,1.63
Cc1cc(C(=O)Nc2cccc(CCN3CC(C)C(C)C3)c2)nn1C (stereo not drawn),-6%,0.56
c1ncc(-c2n[nH]c(C3CCCCC3)n2)cn1,15%,-2.09
O=C(C[C@@H]1N=C(O)N(CCc2cccc(F)c2)C1=O)N1CCc2ccccc2C1,-2%,0.16
O=C(CC1CCC(F)(F)CC1)Nc1ccc(Oc2cccnn2)cc1,-8%,1.24
CN(C)C(=O)c1ccc(Br)cc1Cl,-10%,1.05
O=C(NCCc1ccc(F)cc1)[C@H]1C[C@@H](O)CN1,-14%,2.45
CCc1nc(-c2ccccc2)nc(N2CCN(S(=O)(=O)CC)CC2)c1Cc1ccc(F)cc1,-7%,0.9

Compound,% Inhibition,Z score
CCOc1cc([C@H]2Nc3ccccc3C(=O)N2c2ccc3c(c2)OCO3)ccc1O,-3%,0.49
O=C(Nc1nc(-c2ccc3c(c2)OCCO3)cs1)c1ccc2[nH]cnc2c1,15%,-2.7
Cc1nc(CNC(=O)COc2ccc(Cl)cc2)n[nH]1,-13%,1.9
c1cncc(CN2CC[C@H](c3nc4ccccc4s3)C2)c1,22%,-2.55
CC(C)N(CC(=O)Nc1nc(CC(=O)N[C@@H](C)CCc2ccccc2)cs1)C(=O)c1ccc(F)cc1,-1%,0.13
CN(C)c1cccc(Oc2nnnn2[C@H]2CO[C@H]3[C@@H]2OC[C@@H]3NC(=O)NCc2ccccc2)c1,-7%,1.08
CCn1nccc1NC(=O)[C@@]1(C)CC1(F)F,0%,-0.01
CCCNc1nc(-c2cc(C(=O)N(C)C)cs2)cs1,-20%,1.78
CN(c1cnn(C)c1)S(=O)(=O)CC1(C(F)(F)F)CCC1,12%,-1.43
CNC(=O)c1noc(CN(Cc2ccc(C)s2)C2CCCC2)n1,8%,-1.07
CCCn1cc(NC(=O)NC[C@H]2CC(=O)N(C3CC3)C2)cn1,-17%,2.17
Cn1nc(-c2nc(C3CCOCC3)no2)c2c1CN(C(=O)C1(C)CCCCC1)C2,2%,-0.28
CC[C@H](NC1CCCC1)c1nc(C)c[nH]1,0%,-0.02
O=C(CN1CCN(c2ccccc2)C1=O)N[C@H]1CC[C@H](Oc2cnccn2)CC1,-14%,1.62
CC1CCCN(C(=O)NCC2CCCN(C(C)C)C2)C1 (stereo not drawn),-4%,0.54
COc1ccccc1-n1c(=O)n(C2CCCC2)c(=O)c2c1ncn2[C@@H](C)c1ccccc1,3%,-0.33
COC(C)(C)C(=O)Nc1ccc(C(C)=O)cn1,-1%,0.1
O=C(NCC1CC1)C1Cc2ccccc2N2CCN(c3ccc(F)cc3)CC12 (stereo not drawn),1%,-0.18
CC1=C(C(=O)N2CCOCC2)[C@H](c2cccc(O)c2)n2ncnc2N1,-2%,0.2
CC(C)(C)NCC(=O)Nc1ccc(F)cc1,1%,-0.18
CN(CC(=O)Nc1sc2c(c1C#N)CCCC2)S(=O)(=O)c1ccccc1,-9%,1.01
